Assay [1] concerns the target T1, HSL1, full length, yeast two-hybrid fusion (Arabidopsis thaliana) (UniProt Q5CCK4).
T1 sequence: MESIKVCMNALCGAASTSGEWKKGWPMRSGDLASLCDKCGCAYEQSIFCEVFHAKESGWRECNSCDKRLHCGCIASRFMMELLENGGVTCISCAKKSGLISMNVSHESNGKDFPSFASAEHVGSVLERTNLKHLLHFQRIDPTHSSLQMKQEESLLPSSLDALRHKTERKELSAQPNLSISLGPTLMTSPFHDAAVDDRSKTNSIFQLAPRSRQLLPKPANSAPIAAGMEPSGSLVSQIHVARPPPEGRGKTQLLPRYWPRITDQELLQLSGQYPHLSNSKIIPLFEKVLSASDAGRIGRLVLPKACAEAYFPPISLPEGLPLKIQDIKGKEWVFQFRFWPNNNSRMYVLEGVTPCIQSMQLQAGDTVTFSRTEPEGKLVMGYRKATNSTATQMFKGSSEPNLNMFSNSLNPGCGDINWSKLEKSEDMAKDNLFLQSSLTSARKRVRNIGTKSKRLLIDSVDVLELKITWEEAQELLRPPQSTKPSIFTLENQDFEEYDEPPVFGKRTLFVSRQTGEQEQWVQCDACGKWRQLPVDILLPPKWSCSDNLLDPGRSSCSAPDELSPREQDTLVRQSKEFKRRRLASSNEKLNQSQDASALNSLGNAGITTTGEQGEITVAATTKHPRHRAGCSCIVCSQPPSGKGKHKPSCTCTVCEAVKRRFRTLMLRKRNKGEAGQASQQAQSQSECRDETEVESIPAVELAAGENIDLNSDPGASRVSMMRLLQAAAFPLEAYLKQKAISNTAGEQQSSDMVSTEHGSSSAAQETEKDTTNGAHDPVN
The experiment in a line: two-hybrid; Matchmaker GAL4-based two-hybrid system 3, pGADT7 and pGBKT7, yeast AH109; growth on minimal medium -Leu/-Trp/-His/-Ade.

The target in assay [2] is T2, HSI2, full length, yeast two-hybrid fusion (Arabidopsis thaliana) (UniProt Q8W4L5).
T2 sequence: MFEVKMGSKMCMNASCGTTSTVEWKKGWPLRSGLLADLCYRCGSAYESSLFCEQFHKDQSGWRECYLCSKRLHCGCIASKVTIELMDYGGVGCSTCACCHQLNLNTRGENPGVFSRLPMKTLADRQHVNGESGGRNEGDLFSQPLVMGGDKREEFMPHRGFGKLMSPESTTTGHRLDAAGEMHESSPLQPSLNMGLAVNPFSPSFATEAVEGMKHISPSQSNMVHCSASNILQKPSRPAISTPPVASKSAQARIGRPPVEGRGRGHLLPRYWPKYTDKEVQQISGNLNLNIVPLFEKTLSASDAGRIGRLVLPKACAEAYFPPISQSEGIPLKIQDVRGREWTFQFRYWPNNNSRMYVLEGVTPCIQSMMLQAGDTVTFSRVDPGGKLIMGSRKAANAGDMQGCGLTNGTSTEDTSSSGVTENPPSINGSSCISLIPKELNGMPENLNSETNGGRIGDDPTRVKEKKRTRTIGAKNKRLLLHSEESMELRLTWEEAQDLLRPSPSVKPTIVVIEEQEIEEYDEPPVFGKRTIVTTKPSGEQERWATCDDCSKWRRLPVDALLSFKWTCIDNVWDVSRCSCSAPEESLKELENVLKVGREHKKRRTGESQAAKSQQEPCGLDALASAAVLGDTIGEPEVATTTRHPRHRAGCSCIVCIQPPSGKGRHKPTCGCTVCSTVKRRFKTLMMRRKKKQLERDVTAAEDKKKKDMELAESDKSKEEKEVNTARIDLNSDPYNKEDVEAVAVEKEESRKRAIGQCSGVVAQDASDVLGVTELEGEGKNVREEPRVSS
Described as above.

No constants are given. Whether binding was seen depends on the method and setting. Some entries that bind do so weakly or less than the wild type. Where a sequence is shown, tags or fusion partners need not be part of it.

B1: HSI2, full length, yeast two-hybrid fusion (protein, UniProt Q8W4L5 1-790)
chain: MFEVKMGSKMCMNASCGTTSTVEWKKGWPLRSGLLADLCYRCGSAYESSLFCEQFHKDQSGWRECYLCSKRLHCGCIASKVTIELMDYGGVGCSTCACCHQLNLNTRGENPGVFSRLPMKTLADRQHVNGESGGRNEGDLFSQPLVMGGDKREEFMPHRGFGKLMSPESTTTGHRLDAAGEMHESSPLQPSLNMGLAVNPFSPSFATEAVEGMKHISPSQSNMVHCSASNILQKPSRPAISTPPVASKSAQARIGRPPVEGRGRGHLLPRYWPKYTDKEVQQISGNLNLNIVPLFEKTLSASDAGRIGRLVLPKACAEAYFPPISQSEGIPLKIQDVRGREWTFQFRYWPNNNSRMYVLEGVTPCIQSMMLQAGDTVTFSRVDPGGKLIMGSRKAANAGDMQGCGLTNGTSTEDTSSSGVTENPPSINGSSCISLIPKELNGMPENLNSETNGGRIGDDPTRVKEKKRTRTIGAKNKRLLLHSEESMELRLTWEEAQDLLRPSPSVKPTIVVIEEQEIEEYDEPPVFGKRTIVTTKPSGEQERWATCDDCSKWRRLPVDALLSFKWTCIDNVWDVSRCSCSAPEESLKELENVLKVGREHKKRRTGESQAAKSQQEPCGLDALASAAVLGDTIGEPEVATTTRHPRHRAGCSCIVCIQPPSGKGRHKPTCGCTVCSTVKRRFKTLMMRRKKKQLERDVTAAEDKKKKDMELAESDKSKEEKEVNTARIDLNSDPYNKEDVEAVAVEKEESRKRAIGQCSGVVAQDASDVLGVTELEGEGKNVREEPRVSS
B1: the binding entry in assay [1] and in assay [2] was “binds” throughout.

B2: HSI2mPHD, yeast two-hybrid fusion (protein, UniProt Q8W4L5 1-790)
chain: MFEVKMGSKMCMNASCGTTSTVEWKKGWPLRSGLLADLSYRSGSAYESSLFCEQFHKDQSGWRESYLSSKRLLCGSIASKVTIELMDYGGVGSSTSACCHQLNLNTRGENPGVFSRLPMKTLADRQHVNGESGGRNEGDLFSQPLVMGGDKREEFMPHRGFGKLMSPESTTTGHRLDAAGEMHESSPLQPSLNMGLAVNPFSPSFATEAVEGMKHISPSQSNMVHCSASNILQKPSRPAISTPPVASKSAQARIGRPPVEGRGRGHLLPRYWPKYTDKEVQQISGNLNLNIVPLFEKTLSASDAGRIGRLVLPKACAEAYFPPISQSEGIPLKIQDVRGREWTFQFRYWPNNNSRMYVLEGVTPCIQSMMLQAGDTVTFSRVDPGGKLIMGSRKAANAGDMQGCGLTNGTSTEDTSSSGVTENPPSINGSSCISLIPKELNGMPENLNSETNGGRIGDDPTRVKEKKRTRTIGAKNKRLLLHSEESMELRLTWEEAQDLLRPSPSVKPTIVVIEEQEIEEYDEPPVFGKRTIVTTKPSGEQERWATCDDCSKWRRLPVDALLSFKWTCIDNVWDVSRCSCSAPEESLKELENVLKVGREHKKRRTGESQAAKSQQEPCGLDALASAAVLGDTIGEPEVATTTRHPRHRAGCSCIVCIQPPSGKGRHKPTCGCTVCSTVKRRFKTLMMRRKKKQLERDVTAAEDKKKKDMELAESDKSKEEKEVNTARIDLNSDPYNKEDVEAVAVEKEESRKRAIGQCSGVVAQDASDVLGVTELEGEGKNVREEPRVSS
On to B2, for which the binding entry in assay [1] and in assay [2] was “no binding” throughout.

The values are drawn from article PMC7383879, “HSI2/VAL1 and HSL1/VAL2 function redundantly to repress DOG1 expression in Arabidopsis seeds and seedlings”.
